Measurements: PubChem BioAssay AID1347165 (National Center for Advancing Translational Sciences (NCATS), 2019)
Where “and” joins values, the source holds several entries; their conditions need not be identical. Equal values may be shown once. Out of some 220,000 compounds screened, about 5,700 (2.6%) were called active. Inconclusive results, whose numbers are uncertain, are shown with a selection of clear calls. The call rests on the fitted dose curve; in most records, active means well fitted inhibition curve with a large enough effect; inconclusive means small, poorly fitted or top-dose-only effect; inactive means no such curve, though single readings can be large or run the other way. Where the call is inconclusive, the potency comes from a doubtful curve fit.

target: Lysine-specific demethylase 5B (Homo sapiens) (UniProt Q9UGL1); assay: Primary screen for KDM5B Histone Demethylases FDH-coupled qHTS; details: FDH-coupled NADH fluorescence (FDH is formaldehyde dehydrogenase); activity change, negative = inhibition: at 57.7 µM (top of the series) unless noted; further: nearly all actives have a fitted effect of over 70% in size; on activity change, negative = inhibition: 0% is about no effect
UniProt Q9UGL1, sequence (Q9UGL1 whole entry, looked up): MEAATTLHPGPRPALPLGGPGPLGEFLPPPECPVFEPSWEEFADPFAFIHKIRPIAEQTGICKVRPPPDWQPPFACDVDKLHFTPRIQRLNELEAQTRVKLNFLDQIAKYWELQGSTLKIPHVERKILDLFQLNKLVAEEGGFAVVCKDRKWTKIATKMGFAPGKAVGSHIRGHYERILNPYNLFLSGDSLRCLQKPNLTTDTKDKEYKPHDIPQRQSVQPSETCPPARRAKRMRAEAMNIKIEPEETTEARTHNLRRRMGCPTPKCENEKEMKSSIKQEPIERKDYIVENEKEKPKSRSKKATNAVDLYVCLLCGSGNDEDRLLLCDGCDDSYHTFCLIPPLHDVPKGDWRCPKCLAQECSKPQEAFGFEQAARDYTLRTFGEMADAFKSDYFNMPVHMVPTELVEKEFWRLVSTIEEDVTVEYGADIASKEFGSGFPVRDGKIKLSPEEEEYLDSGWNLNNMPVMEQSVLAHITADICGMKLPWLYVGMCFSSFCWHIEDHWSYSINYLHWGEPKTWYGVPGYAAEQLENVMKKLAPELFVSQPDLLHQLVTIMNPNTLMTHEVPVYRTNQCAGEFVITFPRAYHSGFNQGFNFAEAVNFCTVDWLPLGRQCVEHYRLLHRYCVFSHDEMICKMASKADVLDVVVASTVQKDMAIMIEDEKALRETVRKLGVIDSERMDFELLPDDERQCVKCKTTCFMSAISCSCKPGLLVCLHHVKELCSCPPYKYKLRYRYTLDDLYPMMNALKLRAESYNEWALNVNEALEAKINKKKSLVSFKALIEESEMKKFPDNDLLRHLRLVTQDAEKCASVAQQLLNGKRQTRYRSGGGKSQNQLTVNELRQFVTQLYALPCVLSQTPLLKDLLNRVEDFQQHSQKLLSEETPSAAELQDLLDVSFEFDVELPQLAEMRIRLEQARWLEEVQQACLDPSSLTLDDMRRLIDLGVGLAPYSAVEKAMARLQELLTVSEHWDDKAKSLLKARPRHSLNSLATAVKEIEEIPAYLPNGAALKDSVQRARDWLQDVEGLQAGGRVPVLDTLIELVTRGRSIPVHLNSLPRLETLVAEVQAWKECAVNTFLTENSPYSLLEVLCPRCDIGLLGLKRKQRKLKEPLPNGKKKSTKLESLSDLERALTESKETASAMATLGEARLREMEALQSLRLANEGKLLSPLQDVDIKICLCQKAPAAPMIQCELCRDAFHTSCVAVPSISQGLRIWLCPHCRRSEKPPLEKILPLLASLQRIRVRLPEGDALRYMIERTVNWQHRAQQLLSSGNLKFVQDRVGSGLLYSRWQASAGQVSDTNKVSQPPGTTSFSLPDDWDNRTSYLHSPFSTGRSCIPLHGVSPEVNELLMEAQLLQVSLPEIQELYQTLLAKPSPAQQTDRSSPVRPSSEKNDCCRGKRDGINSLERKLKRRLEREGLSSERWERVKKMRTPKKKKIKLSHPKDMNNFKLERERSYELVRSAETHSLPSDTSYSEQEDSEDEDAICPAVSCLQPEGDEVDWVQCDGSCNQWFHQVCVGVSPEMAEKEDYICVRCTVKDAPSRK
Method in brief: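 Here, H3K4me3 peptide (12.5 µM in substrate mix) is demethylated by KDM5BΔAP, 200 nM final, after 10 min compound exposure. Formaldehyde product is coupled through FDH (0.25 U/mL in mix) to NADH fluorescence; 30-min ΔRFU feeds dose-response curves.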
Potency means the concentration at half of the fitted maximal effect; tags describe the fitted curve by direction and shape.

SMILES	Potency	activity change, negative = inhibition
CS(=O)(=O)N(CC(=O)Nc1ccc(Br)cc1)c1ccccc1Br	inconclusive: 2.51 µM [inhibitor, full curve, poor fit]	
CC1(C(=O)NCc2ccco2)CN(Cc2ccccc2)Cc2ccc(N3CCOCC3)nc21 (stereo not given)	active: 15.8 µM	
O=C(NCc1ccc(-c2ccc(Cl)cc2)o1)C1NCCc2[nH]cnc21 (stereo not given)	inconclusive: 14.1 µM [inhibitor, partial curve, poor fit]	
Nc1nc(SCC(=O)Nc2cccc(C(F)(F)F)c2)n[nH]1	inactive	
CCOC(=O)c1c(-c2ccc(C)cc2)csc1NC(=O)c1cc(-c2ccc(Cl)cc2)on1	inconclusive: 17.8 µM [inhibitor, partial curve, poor fit]	
Cc1ccc(CCCCCCCCCCCC(=O)O)cc1	inactive	
O=C1CCN(Cc2ccncc2)CCCC(c2nc(-c3cnccn3)no2)CCN1 (stereo not given)	inconclusive: 22.4 µM [inhibitor, single point]	
Cc1nc(-c2ccccc2OC2CN(C(=O)c3cccc4[nH]ccc34)C2)no1	active: 28.2 µM	
Cc1nnc(NNS(=O)(=O)c2ccc(Cl)cc2)[nH]c1=O	inconclusive: 22.4 µM [inhibitor, partial curve, poor fit]	
Cc1ccc(S(=O)(=O)N2CCC(C(=O)OC(C)C(=O)N3CCCC3)CC2)cc1 (stereo not given)	inactive	
COc1ccc(S(=O)(=O)N(CC(=O)NCc2ccncc2)c2ccc(C)cc2)cc1Br	inactive	
Cc1oc(-c2nc(C#N)c(NCc3cccnc3)o2)cc1S(=O)(=O)N1CCCC1	inconclusive: 10 µM [inhibitor, partial curve, poor fit]	
O=C(O)c1cccc(-c2ccc(CNC3CCCC3)o2)c1	inconclusive: 22.4 µM [inhibitor, single point]	
COCCNC(=O)Cn1cc(S(=O)(=O)Cc2ccc(F)cc2)c2ccccc21	inactive	
Cc1nc(NCC2CCCO2)c(C#N)c2c1CCCC2 (stereo not given)	inconclusive: 22.4 µM [inhibitor, partial curve, poor fit]	
Cc1ccccc1CNC(=O)c1nn(C)c(=O)c2ccccc12	inactive	
Cc1cccc(-c2cccc(N)c2)c1	inconclusive: 39.8 µM [inhibitor, single point]	
COC(=O)C(C)Oc1cc(Br)c(C=O)cc1OC (stereo not given)	inactive	
O=C(NCc1ccc2nonc2c1)C1NCCc2[nH]cnc21 (stereo not given)	inconclusive: 10 µM [inhibitor, partial curve, poor fit]	
COCCC(=O)N[C@H]1CC[C@]2(C)CC[C@@H]([C@H](C)C(=O)NCc3ccco3)[C@H](O)[C@H]2[C@@H]1C	inconclusive: 35.5 µM [inhibitor, single point]	
Cc1nnc(SCC(=O)Nc2nncs2)n1C(C)C	inconclusive: 22.4 µM [inhibitor, partial curve, poor fit]	
CCOc1ccc(NC(=O)Cn2ccn3nc4c(c3c2=O)CC(C)CC4)cc1 (stereo not given)	inconclusive: 28.2 µM [inhibitor, single point]	

SMILES	Potency	activity change, negative = inhibition
O=C(Nc1ccccc1)N[C@H]1[C@H](O)[C@@H](N2CCC(Cc3ccccc3)CC2)[C@@H]2OC[C@H]1O2	inconclusive: 20 µM [inhibitor, single point]	
O=C(O)c1c(-c2ccccc2)oc2ccc(OCc3ccc(Cl)c(Cl)c3)cc12	inconclusive: 28.2 µM [inhibitor, partial curve, poor fit]	
CN(Cc1cccnc1)C(=O)c1n[nH]c2c1CN(Cc1cccnc1)CC2	active: 25.1 µM	
CCc1c(C)sc2c1c1nc(-c3cccnc3)nn1c(=O)n2CC(=O)N1CCOCC1	inactive	
N#C/C(=C/c1ccccc1OC(F)F)C(=O)c1ccccc1	inconclusive: 39.8 µM [inhibitor, single point]	
Cn1cc(CCC(=O)NCc2ccc(Cl)cc2)c2ccccc21	inconclusive: 1.26 µM [inhibitor, full curve, poor fit]	
COCCn1c(C)cnc1CCNS(=O)(=O)c1cccnc1	inconclusive: 25.1 µM [inhibitor, single point]	
COCCCNC(=O)c1oc2c(c1C)-c1nn(Cc3ccc(Cl)cc3)cc1CC2	inconclusive: 15.8 µM [inhibitor, partial curve, poor fit]	
CN(Cc1ccc(C#N)cc1)Cc1cccc2cnccc12	inconclusive: 28.2 µM [inhibitor, single point]	
COc1ccc(CCC(=O)N2[C@@H]3CC[C@H]2CC(NC(=O)c2ccncc2)C3)cc1 (stereo not given in full)	inactive	
CCCCn1nc(C(=O)NCCNS(=O)(=O)c2cc(C)ccc2C)c2ccccc2c1=O	inactive	
C=CCn1cc2c3c(cccc31)[C@H](CC(C)C)N[C@H](C(=O)NC1CCCC1)C2	inconclusive: 35.5 µM [inhibitor, single point]	
COCCOCC1(CNCc2cn(C)c3ccccc23)C[C@@H](O)[C@@H](O)C1 (stereo not given in full)	inconclusive: 25.1 µM [inhibitor, partial curve]	
COc1ccc(CC(=O)NNc2ncnc3c2cnn3Cc2ccccc2)cc1OC	inconclusive: 25.1 µM [inhibitor, single point]	
COc1ccc(CC(=O)N2CCC[C@H]2c2nc(-c3ccc(OC)c(OC)c3)no2)cc1Cl	inconclusive: 28.2 µM [inhibitor, partial curve, poor fit]	
NC(=O)c1nsc(C(=O)N(c2ccccc2)C(C(=O)NCC2CCCO2)c2ccc(F)cc2)c1N (stereo not given)	inconclusive: 31.6 µM [inhibitor, partial curve, poor fit]	
NC(=O)c1nsc(C(=O)N(Cc2ccc(F)cc2)C(C(=O)NC2CCCC2)c2ccco2)c1N (stereo not given)	inconclusive: 39.8 µM [inhibitor, single point]	
CC(C(=O)O)n1nc(-c2ccccc2)c2ccccc21 (stereo not given)	inconclusive: 28.2 µM [inhibitor, partial curve, poor fit]	
CN1C(=O)CCC2(CNC(=O)Nc3ccc4c(c3)OCCO4)CCCC=C12 (stereo not given)	inconclusive: 17.8 µM [inhibitor, partial curve]	
O=C(Nc1cccc(F)c1)c1ccc2c(c1)OCCO2	inactive	
Cc1noc2ncnc(SCc3ccc(C(F)(F)F)cc3)c12	inactive	
Cc1ccc(NS(=O)(=O)c2cc([N+](=O)[O-])ccc2N/N=C/c2ccc(C#N)cc2)c(C)c1	inactive	

SMILES	Potency	activity change, negative = inhibition
Cc1ccc(C)c(N2CCN(C(=O)CCS(=O)(=O)c3ccc4c(c3)CC(=O)N4C)CC2)c1		inconclusive: -30.2% [inhibitor]
COCCCNC(=O)CS(=O)Cc1nc(-c2ccc(OC)c(OC)c2)oc1C (stereo not given)	inconclusive: 22.4 µM [inhibitor, single point]	
COc1ccccc1CNC(=O)CCC[C@@H]1[C@H]2CCCN3CCC[C@@H](CN1C(=O)c1ccccc1)[C@@H]23	inconclusive: 28.2 µM [inhibitor, partial curve, poor fit]	
COCCn1cc2c3c(cccc31)CN(C(=O)c1cccc(Cl)c1)CC2	inconclusive: 31.6 µM [inhibitor, single point]	
CCOc1cccc(CNc2ccc(O)cc2)c1OCc1ccccc1Cl	inconclusive: 2.82 µM [inhibitor, full curve, poor fit]	
CCCc1nc(-c2ccc(-c3ccc(OC)cc3)nc2OC)no1	inconclusive: 25.1 µM [inhibitor, partial curve, poor fit]	
N#C/C(=C\c1c(Oc2ccccc2F)nc2ccccn2c1=O)C(=O)NC1CCS(=O)(=O)C1 (stereo not given)	inconclusive: 39.8 µM [inhibitor, single point]	
CC1CCCN(C(=O)c2cc(-c3ccco3)nc3ccccc23)C1 (stereo not given)	inconclusive: 22.4 µM [inhibitor, partial curve, poor fit] and inconclusive: 28.2 µM [inhibitor, partial curve, poor fit]	
COc1ccc(C2C=C(c3ccc(Br)cc3)Nc3ncnn32)cc1 (stereo not given)	inconclusive: 25.1 µM [inhibitor, partial curve, poor fit]	
CCCCN(CCCC)c1nc(-c2ccccc2)cc(-c2ccccc2)c1C#N	inconclusive: 1.78 µM [inhibitor, full curve, poor fit]	
O=C1NCCCCCCN(C(=O)CCC2CCCC2)[C@H]2C[C@H](c3nc(Cc4ccccc4)no3)C[C@@H]12	inactive	
Cc1cc(C)cc(NC(=O)CN(C)S(=O)(=O)c2ccc3[nH]c4c(c3c2)CCCC4)c1	inconclusive: 31.6 µM [inhibitor, partial curve, poor fit]	
COCCn1c(=O)[nH]c(=O)c2c3c(cnc21)C(=O)CC(c1ccccc1)C3 (stereo not given)	inactive	
CCOc1ccccc1CNC(=O)CCc1cn(Cc2ccc(Cl)cc2)c2ccccc12	inconclusive: 22.4 µM [inhibitor, single point]	
Cc1occc1C(=O)N[C@@H]1CN(c2ncccn2)C[C@H]1CO	inconclusive: 35.5 µM [inhibitor, partial curve, poor fit]	
CCCCN(C)C(=O)c1ccc(S(=O)(=O)NCc2ccco2)cc1	inactive	
Fc1ccc(NC(=S)NCCc2ccccc2F)cc1	inactive	
O=C(c1ccc(N2CC3CC(C2)[C@H]2CCCC(=O)N2C3)nc1)N1CCOCC1 (stereo not given in full)	inactive	
O=C(NCCc1csc(-c2cccc(F)c2)n1)c1ccc(Br)o1	inconclusive: 35.5 µM [inhibitor, single point]	
CCN(Cc1ccncc1)C(=O)c1ccc2c(c1)C(O)CCCCCN2C (stereo not given)	inconclusive: 17.8 µM [inhibitor, single point]	
CCOc1ccc(NC(=O)c2cccc(Nc3ccnc(-c4ccc(F)cc4)n3)c2)cc1	inactive	
